# Some of the results follow.
# Key:
# Test in all cases: glycan array binding signal (z-score within array); higher = stronger binding
# Settings in all cases: glycan notation: IUPAC condensed, linker removed; mutation: F63H
# [1] = molecular target: Gal(b1-4)GlcNAc(b1-2)Man(a1-6)[GlcNAc(b1-2)Man(a1-3)]Man(b1-4)GlcNAc(b1-4)GlcNAc
# Procedure, shortened: (§1)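 The Consortium for Functional Glycomics database supplied 3228 glycan arrays, of which those lacking an available protein sequence were dropped. The binding signal, a within-array Z-score, was averaged across arrays of the same protein sequence and across linkers. Negative scores can be read as non-binding.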
# [2] = molecular target: Gal(b1-4)GlcNAc(b1-2)Man(a1-6)[Man(a1-3)]Man(b1-4)GlcNAc(b1-4)GlcNAc
# Procedure, shortened: as §1
# [3] = molecular target: Gal(b1-4)GlcNAc(b1-2)[Gal(b1-4)GlcNAc(b1-4)]Man(a1-3)[Gal(b1-4)GlcNAc(b1-2)Man(a1-6)]Man(b1-4)GlcNAc(b1-4)GlcNAc
# Procedure, shortened: as §1
# [4] = molecular target: Gal(b1-4)GlcNAc(b1-2)[Gal(b1-4)GlcNAc(b1-4)]Man(a1-3)[Gal(b1-4)GlcNAc(b1-2)[Gal(b1-4)GlcNAc(b1-6)]Man(a1-6)]Man(b1-4)GlcNAc(b1-4)GlcNAc
# Procedure, shortened: as §1
# [5] = molecular target: Gal(b1-4)GlcNAc(b1-2)[Gal(b1-4)GlcNAc(b1-4)]Man(a1-3)[GlcNAc(b1-4)][Gal(b1-4)GlcNAc(b1-2)Man(a1-6)]Man(b1-4)GlcNAc(b1-4)GlcNAc
# Procedure, shortened: as §1
# [6] = molecular target: Gal(b1-4)GlcNAc(b1-2)[Gal(b1-4)GlcNAc(b1-4)]Man(a1-3)[GlcNAc(b1-4)][Gal(b1-4)GlcNAc(b1-2)[Gal(b1-4)GlcNAc(b1-6)]Man(a1-6)]Man(b1-4)GlcNAc(b1-4)GlcNAc
# Procedure, shortened: as §1
# [7] = molecular target: Gal(b1-4)GlcNAc(b1-2)[Gal(b1-4)GlcNAc(b1-6)]Man(a1-6)[Gal(b1-4)GlcNAc(b1-2)Man(a1-3)]Man(b1-4)GlcNAc(b1-4)GlcNAc
# Procedure, shortened: as §1
# [8] = molecular target: Gal(b1-4)GlcNAc(b1-2)[Gal(b1-4)GlcNAc(b1-6)]Man(a1-6)[Gal(b1-4)GlcNAc(b1-2)Man(a1-3)]Man(b1-4)GlcNAc(b1-4)[Fuc(a1-6)]GlcNAc
# Procedure, shortened: as §1
# [9] = molecular target: Gal(b1-4)GlcNAc(b1-2)[Gal(b1-4)GlcNAc(b1-6)]Man(a1-6)[GlcNAc(b1-4)][Gal(b1-4)GlcNAc(b1-2)Man(a1-3)]Man(b1-4)GlcNAc(b1-4)GlcNAc
# Procedure, shortened: as §1
# [10] = molecular target: Gal(b1-4)GlcNAc(b1-2)[Gal(b1-4)GlcNAc(b1-6)]Man(a1-6)[GlcNAc(b1-4)][Gal(b1-4)GlcNAc(b1-2)[Gal(b1-4)GlcNAc(b1-4)]Man(a1-3)]Man(b1-4)GlcNAc(b1-4)[Fuc(a1-6)]GlcNAc
# Procedure, shortened: as §1
# [11] = molecular target: Gal(b1-4)GlcNAc(b1-3)Gal(b1-3)GalNAc
# Procedure, shortened: as §1
# [12] = molecular target: Gal(b1-4)GlcNAc(b1-3)Gal(b1-3)GlcNAc
# Procedure, shortened: as §1
# [13] = molecular target: Gal(b1-4)GlcNAc(b1-3)Gal(b1-4)Glc
# Procedure, shortened: as §1
# [14] = molecular target: Gal(b1-4)GlcNAc(b1-3)Gal(b1-4)GlcNAc
# Procedure, shortened: as §1
# [15] = molecular target: Gal(b1-4)GlcNAc(b1-3)Gal(b1-4)GlcNAc(b1-2)Man(a1-3)[Gal(b1-4)GlcNAc(b1-3)Gal(b1-4)GlcNAc(b1-2)Man(a1-6)]Man(b1-4)GlcNAc(b1-4)GlcNAc
# Procedure, shortened: as §1
# [16] = molecular target: Gal(b1-4)GlcNAc(b1-3)Gal(b1-4)GlcNAc(b1-2)Man(a1-3)[Gal(b1-4)GlcNAc(b1-3)Gal(b1-4)GlcNAc(b1-2)Man(a1-6)]Man(b1-4)GlcNAc(b1-4)[Fuc(a1-6)]GlcNAc
# Procedure, shortened: as §1
# [17] = molecular target: Gal(b1-4)GlcNAc(b1-3)Gal(b1-4)GlcNAc(b1-2)[Gal(b1-4)GlcNAc(b1-3)Gal(b1-4)GlcNAc(b1-6)]Man(a1-6)[Gal(b1-4)GlcNAc(b1-3)Gal(b1-4)GlcNAc(b1-2)Man(a1-3)]Man(b1-4)GlcNAc(b1-4)GlcNAc
# Procedure, shortened: as §1
# [18] = molecular target: Gal(b1-4)GlcNAc(b1-3)Gal(b1-4)GlcNAc(b1-2)[Gal(b1-4)GlcNAc(b1-3)Gal(b1-4)GlcNAc(b1-6)]Man(a1-6)[Gal(b1-4)GlcNAc(b1-3)Gal(b1-4)GlcNAc(b1-2)Man(a1-3)]Man(b1-4)GlcNAc(b1-4)[Fuc(a1-6)]GlcNAc
# Procedure, shortened: as §1
# [19] = molecular target: Gal(b1-4)GlcNAc(b1-3)Gal(b1-4)GlcNAc(b1-3)Gal(b1-4)GlcNAc
# Procedure, shortened: as §1
# [20] = molecular target: Gal(b1-4)GlcNAc(b1-3)Gal(b1-4)GlcNAc(b1-3)Gal(b1-4)GlcNAc(b1-2)Man(a1-3)[Gal(b1-4)GlcNAc(b1-3)Gal(b1-4)GlcNAc(b1-3)Gal(b1-4)GlcNAc(b1-2)Man(a1-6)]Man(b1-4)GlcNAc(b1-4)GlcNAc
# Procedure, shortened: as §1
# [21] = molecular target: Gal(b1-4)GlcNAc(b1-3)Gal(b1-4)GlcNAc(b1-3)Gal(b1-4)GlcNAc(b1-2)Man(a1-3)[Gal(b1-4)GlcNAc(b1-3)Gal(b1-4)GlcNAc(b1-3)Gal(b1-4)GlcNAc(b1-2)Man(a1-6)]Man(b1-4)GlcNAc(b1-4)[Fuc(a1-6)]GlcNAc
# Procedure, shortened: as §1
# [22] = molecular target: Gal(b1-4)GlcNAc(b1-3)Gal(b1-4)GlcNAc(b1-3)Gal(b1-4)GlcNAc(b1-2)[Gal(b1-4)GlcNAc(b1-3)Gal(b1-4)GlcNAc(b1-3)Gal(b1-4)GlcNAc(b1-6)]Man(a1-6)[Gal(b1-4)GlcNAc(b1-3)Gal(b1-4)GlcNAc(b1-3)Gal(b1-4)GlcNAc(b1-2)Man(a1-3)]Man(b1-4)GlcNAc(b1-4)[Fuc(a1-6)]GlcNAc
# Procedure, shortened: as §1
binder,measurement,setting,value
"AAL (Agrocybe aegerita), Q6WY08 (protein) MQGVNIYNISAGTSVDLAAPVTTGDIVTFFSSALNLNAGAGNPNNTTLNLFAENGAYLLHIAHRLQENVIIFNSRQPDGPWLVEQRVSDVANQFAGIDGKAMVTVFDHGDKYQVVINEKTVIQYTKQISGLTLSLSYNATEETSIFSTVVEAVTYTGLALEHHHHHH",glycan array binding signal (z-score),[1],-0.263
same,glycan array binding signal (z-score),[2],0.29
same,glycan array binding signal (z-score),[3],-0.003
same,glycan array binding signal (z-score),[4],-0.146
same,glycan array binding signal (z-score),[5],0.088
same,glycan array binding signal (z-score),[6],-0.286
same,glycan array binding signal (z-score),[7],-0.334
same,glycan array binding signal (z-score),[8],0.344
same,glycan array binding signal (z-score),[9],4.37
same,glycan array binding signal (z-score),[10],-0.265
same,glycan array binding signal (z-score),[11],0.161
same,glycan array binding signal (z-score),[12],-0.069
same,glycan array binding signal (z-score),[13],0.09
same,glycan array binding signal (z-score),[14],-0.389
same,glycan array binding signal (z-score),[15],0.457
same,glycan array binding signal (z-score),[16],0.11
same,glycan array binding signal (z-score),[17],-0.089
same,glycan array binding signal (z-score),[18],0.344
same,glycan array binding signal (z-score),[19],0.719
same,glycan array binding signal (z-score),[20],0.028
same,glycan array binding signal (z-score),[21],1.22
same,glycan array binding signal (z-score),[22],0.666

# From the supplement of paper PMC8728848
